# Screen size: about 310,000 compounds; about 2,200 (0.71%) showed an effect of 50% or more. Effects have a minus sign here. This is one part of the list.
# Biological target: human ether-à-go-go-related gene (hERG) potassium channel (human, UniProt Q12809)
# Test: primary screen, population patch clamp on CHO cells stably expressing hERG
# Sequence of human ether-à-go-go-related gene (hERG) potassium channel (Q12809 whole entry, looked up): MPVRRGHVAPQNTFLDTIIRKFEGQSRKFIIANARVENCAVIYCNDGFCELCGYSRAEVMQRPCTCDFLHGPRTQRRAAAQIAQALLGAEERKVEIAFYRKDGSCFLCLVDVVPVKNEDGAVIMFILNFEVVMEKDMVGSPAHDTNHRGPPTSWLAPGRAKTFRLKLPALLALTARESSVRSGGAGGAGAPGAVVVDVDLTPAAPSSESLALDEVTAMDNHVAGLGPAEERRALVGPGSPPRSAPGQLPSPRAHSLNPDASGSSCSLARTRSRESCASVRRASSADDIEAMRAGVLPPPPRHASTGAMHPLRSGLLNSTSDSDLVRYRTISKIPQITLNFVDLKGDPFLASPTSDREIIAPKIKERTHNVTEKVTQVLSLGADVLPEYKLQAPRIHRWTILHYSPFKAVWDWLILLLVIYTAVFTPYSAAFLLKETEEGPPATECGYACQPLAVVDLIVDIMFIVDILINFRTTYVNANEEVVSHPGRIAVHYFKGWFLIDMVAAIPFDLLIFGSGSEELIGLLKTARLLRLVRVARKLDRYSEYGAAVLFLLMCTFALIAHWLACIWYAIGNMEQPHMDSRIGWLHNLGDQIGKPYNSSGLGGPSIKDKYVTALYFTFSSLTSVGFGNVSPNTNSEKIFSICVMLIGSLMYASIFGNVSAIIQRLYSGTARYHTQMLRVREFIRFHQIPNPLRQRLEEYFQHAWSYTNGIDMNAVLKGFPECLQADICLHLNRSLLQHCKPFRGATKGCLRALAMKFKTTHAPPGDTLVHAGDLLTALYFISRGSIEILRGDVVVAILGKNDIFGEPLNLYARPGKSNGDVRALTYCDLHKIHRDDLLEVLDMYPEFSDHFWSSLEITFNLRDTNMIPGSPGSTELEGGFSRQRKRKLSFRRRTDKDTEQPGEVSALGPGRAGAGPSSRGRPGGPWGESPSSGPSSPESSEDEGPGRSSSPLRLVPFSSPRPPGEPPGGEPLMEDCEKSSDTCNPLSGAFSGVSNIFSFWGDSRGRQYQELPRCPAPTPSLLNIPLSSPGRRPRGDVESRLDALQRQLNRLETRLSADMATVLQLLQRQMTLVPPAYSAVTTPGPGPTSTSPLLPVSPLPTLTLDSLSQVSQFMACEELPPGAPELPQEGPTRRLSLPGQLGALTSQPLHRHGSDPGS
row,Structure (SMILES),"hERG current change (%, negative = inhibition) at 1uM"
1,CC(C)CNC(=S)NNC(=O)c1ccc2c(c1)OCO2,6.48%
2,CCN1CCN(S(=O)(=O)c2ccc(OC)c(NC(=O)c3ccccc3)c2)CC1,-32.8%
3,COc1cccc2sc(/N=C/N(C)C)nc12,15.4%
4,COc1cccc(NC(=O)CSC(N)=O)c1,16.4%
5,Cc1ccccc1/C=N/Nc1nc2ccccc2c(=O)n1O,15.3%
6,O=C(CCCn1c(=O)[nH]c2ccsc2c1=O)N1CCCCC1,15.3%
7,Cc1cc(C(=O)N2CCC(Cc3ccccc3)CC2)ccc1[N+](=O)[O-],-5.63%
8,O=C(NCCc1cccc(F)c1)/C(=C/c1cccnc1)NC(=O)c1ccccc1,1.11%
9,COC(=O)C1=C(C)NC(=O)NC1c1ccc([N+](=O)[O-])o1 (stereo not shown),11.6%
10,O=S(=O)(Nc1cc(S(=O)(=O)N2CCOCC2)ccc1O)c1ccc2c(c1)OCCCO2,6.82%
11,NNS(=O)(=O)c1ccc(Cc2ncc(C(F)(F)F)cc2Cl)s1,8.52%
12,O=C(Nc1ccc(F)c(Cl)c1)c1cncs1,15.8%
13,O=C(O)CCCCCCCCCCP(=O)(c1ccccc1)c1ccccc1,7.21%
14,CCOC(=O)C[N+]1(C)CCN(C(C)=O)CC1.[Br-],6.33%
15,BrC(=C\c1ccccc1)/C=N/Nc1nc(N2CCOCC2)nc(N2CCOCC2)n1,4.53%
16,COc1ccc(-c2nc3ccccc3n2Cc2ccccc2)cc1,-9.89%
17,O=S(=O)(/N=C(/Nc1ccccn1)c1ccccc1)c1ccc(F)cc1,12.8%
18,CC1(C)C=Cc2c(ccc3c2OC[C@@H](c2ccc(O)cc2O)C3)O1,5.48%
19,CC(C)(CC(=O)N1CCN(c2ccc(Cl)cc2)CC1)CC1=NS(=O)(=O)c2ccccc2N1,-19.6%
20,CCC(=O)N(Cc1ccco1)c1nc(-c2cc(OC)ccc2OC)cs1,12.4%
21,O=C(O)C(F)(F)F.c1cn2c(NC3CCCCC3)c(-c3ccc(SC4CCCCC4)cc3)nc2cn1,6.83%
22,CC1=C(C(=O)Nc2cc(C(=O)N3CCN(c4cccc(C)c4C)CC3)ccc2C)SCCO1,11.9%

row,Structure (SMILES),"hERG current change (%, negative = inhibition) at 1uM"
1,COc1cccc(C(=O)OCCN2CCCCC2)c1.Cl,-2.55%
2,O=C1CC(O)(C(F)F)Oc2ccc3ccccc3c21 (stereo not shown),6.09%
3,COCCN(CC(=O)Nc1cccc(C)c1)S(=O)(=O)c1ccc(S(=O)(=O)N2CCCC2)cc1,-4.44%
4,COc1cc(OC)c(OC)cc1CN1CCN(C(=O)c2cccc3ccccc23)CC1.O=C(O)C(=O)O,13%
5,COc1ccc(/C=C/c2nc3sc4c(c3c(=O)o2)CCC4)cc1,6.24%
6,COc1ccccc1N(C)S(=O)(=O)c1ccc(Cl)c(C(=O)Nc2ccncc2)c1,-14.4%
7,CCOP(=O)(/C(C#N)=C(\C)O)c1ccccc1 (stereo not shown),4.29%
8,CC(c1cccnc1)N(C(=O)Nc1ccccc1)C1CCCCC1 (stereo not shown),9.28%
9,O=C(CCN1C(=O)NC2(CCCC2)C1=O)Nc1cccc(S(=O)(=O)N2CCOCC2)c1,13.9%
10,Cn1cccc1/C=N/NC(=O)C(O)c1ccccc1 (stereo not shown),9.98%
11,O=C(CSc1ccc(-c2ccncc2)nn1)c1ccccc1,28.3%
12,NCCCC[C@H]1CNC(=S)N1CCCCC1CCCCC1,-1.35%
13,CCN(c1ccc(NC(=O)COC(=O)c2ccc(C)c(S(=O)(=O)N3CCOCC3)c2)cc1)C(C)C,12.7%
14,CC(C)(C)[C@]1(O)C[C@@H]2OC(=O)C[C@@]23C(=O)O[C@@H]2OC(=O)[C@H](O)[C@]213,16.7%
15,Cc1cc(C)cc(N(CC(=O)NCC2CCCO2)C(=O)CCC(=O)Nc2nccs2)c1 (stereo not shown),11.3%
16,COc1ccc(-c2nc(C#N)c(NCCCN(C)C)o2)cc1OC,2.47%
17,O=C(NCC(c1cccs1)N1CCOCC1)c1cc([N+](=O)[O-])ccc1Cl (stereo not shown),1.28%
18,CCO[C@H]1OC(C(=O)O)=C[C@@H](C)[C@@H]1CCCO,12.7%
19,CCOc1cccc(C(=O)NNC(=O)CCC(=O)O)c1,11.2%
20,O=C(O)C[C@H]1c2cc(C(F)(F)F)ccc2S(=O)(=O)N1C1CCN(Cc2ccccc2)CC1,8.77%
21,O=[N+]([O-])c1ccccc1N=Nc1ccc(O)cc1,12.1%
22,CN1C(=O)c2ccccc2N(C)C1c1ccccc1Cl (stereo not shown),17.4%

row,Structure (SMILES),"hERG current change (%, negative = inhibition) at 1uM"
1,O=C(Cn1nnc2ccccc21)c1ccc(Br)cc1,9.61%
2,CCCCC(=O)NC(=S)Nc1ccccc1C(=O)Nc1ccccc1,-4.33%
3,Cc1cccn2cc(CSc3ccccc3N)nc12,2.65%
4,Cc1n[nH]c(C)c1S(=O)(=O)N1CCCC(C(=O)N2CCN(c3ccc(Cl)cc3)CC2)C1 (stereo not shown),-47.1%
5,CCOc1ccc(N(CC(=O)NC(C)C)C(=O)CCC(=O)Nc2ccccn2)cc1,9.6%
6,COc1cccc(NC(=O)CSc2nc3ccccc3c(=O)n2C)c1,9.06%
7,O=C(NC(=S)Nc1ccccc1Cl)c1cncc(C#Cc2ccccc2)c1,14.6%
8,Cc1ccc(NC(=O)CSc2nnc(-c3ccccn3)n2N)cc1F,-9.31%
9,CC1C=CCC2C(=O)N(c3ccc(OC(=O)c4cccs4)cc3)C(=O)C12 (stereo not shown),12.1%
10,COc1ccc2nc(NC(=O)c3cccs3)sc2c1,12.4%
11,COc1ccc(NC(=O)Cn2c(C)cc(=O)c3cccc(OC)c32)cc1,10.4%
12,O=C(O)c1ccccc1C(=O)Nc1ccc(-c2csc(-c3ccccc3)n2)cc1,14.3%
13,CN(C)C(CNC(=O)c1ccco1)c1cccs1 (stereo not shown),7.62%
14,COc1ccc(-c2noc(CSc3nc4ccccc4c(=O)n3-c3ccccc3)n2)cc1OC,11.8%
15,COCCNc1oc(-c2ccco2)nc1S(=O)(=O)c1ccccc1,8.44%
16,CCCCC1CCC(c2nc(-c3cccnc3)no2)CC1 (stereo not shown),-2.41%
17,CCCN1C2CCCC1CC(NC(=O)c1ccccc1OCC)C2 (stereo not shown),-9.33%
18,CCN1CCN(Cc2ccc(C)cc2)CC1,-2.75%
19,O=C(CNS(=O)(=O)c1ccccc1)OCC(=O)c1ccc(Br)cc1,17.4%
20,COCCn1c(SCC#N)nnc1-c1ccccc1O,-0.569%
21,CCOC(=O)c1cnc2ccccc2c1Nc1ccc(C(=O)O)cc1.Cl,13.4%
22,Cc1nnc(SCC(=O)N2c3ccccc3C(C)(c3ccccc3)CC2(C)C)s1 (stereo not shown),-7.23%

row,Structure (SMILES),"hERG current change (%, negative = inhibition) at 1uM"
1,O=C(Nc1ccccc1N1CCOCC1)c1cccc(F)c1,5.51%
2,Cc1ccc(OCc2ccc(C(=O)NCC3CCCO3)cc2)cc1 (stereo not shown),24.9%
3,COC(=O)Cn1ncc2c(C)n(Cc3ccccc3)c(C)c2c1=O,14.5%
4,C=C1CCN(c2ccc(C(=O)NCc3ccccc3)cc2[N+](=O)[O-])CC1,9.22%
5,Cc1ccc(S(=O)(=O)c2nc(-c3ccccc3Cl)oc2N(C)C)cc1,6.81%
6,Cn1cc(C(=O)c2ccc(Cl)cc2Cl)cc1C(=O)N/N=C(\N)COc1cccc(C(F)(F)F)c1,17%
7,Cc1cccc(C)c1N(CC(=O)N1CCOCC1)S(C)(=O)=O,14.2%
8,O=C(NC1CCCCC1)C(c1cccnc1)N(C(=O)c1ccc(Cl)nc1)C1CCCCC1 (stereo not shown),8.54%
9,Cc1cc(C)c(O)c(-c2n[nH]c3c2C(c2cccc(O)c2)N(Cc2ccco2)C3=O)c1 (stereo not shown),10.2%
10,CN1OC2C(=O)N(c3ccccc3)C(=O)C2C1c1ccc(F)cc1 (stereo not shown),-2.43%
11,O=C(NCc1ccccc1Cl)c1ccc(CS(=O)(=O)c2ccccc2)o1,9.05%
12,COCCNC(=O)Nc1ccc2c(c1)N(C)C(=O)CS2,16.1%
13,CS(=O)(=O)N1CCN(c2ccc(NC(=S)NC(=O)c3ccc4c(c3)OCO4)cc2)CC1,17.7%
14,Cc1cccc(N2CCN(C(=O)CCNS(=O)(=O)c3ccc4c(c3)oc(=O)n4C)CC2C)c1 (stereo not shown),8.95%
15,CC(NC(=O)CCN1C(=O)c2ccccc2C1=O)c1ccc2c(c1)CCCC2 (stereo not shown),16.1%
16,Cc1c(N=Cc2c(O)n(C)c(=O)[nH]c2=O)c(=O)n(-c2ccccc2)n1C,11.7%
17,O=c1[nH]c(=O)n(Cc2ccc(Oc3ccccc3)cc2)cc1Br,12.5%
18,O=C1ON=C(c2ccc(Cl)cc2)/C1=C/c1ccc(O)cc1,19.3%
19,O=C(CN1CCCCC1)Nc1cccc(Oc2ccccc2)c1,-4.49%
20,CC(C)[C@H](Nc1ccc(S(=O)(=O)N2CCOCC2)cc1[N+](=O)[O-])C(=O)OCC(N)=O,7.12%
21,Cc1cc(-c2ccc([N+](=O)[O-])cc2)nc2ccccc12.Cl,13.9%
22,c1ccc2c(Cn3nnc4ccccc43)cccc2c1,13.4%
